# Measured values published in PMC12820563.
# The list shows a part of the results. The list includes weakly bound sequences.
# Molecular target: T1, MBP-FoxP3dN (UniProt Q99JB6)
# T1 sequence: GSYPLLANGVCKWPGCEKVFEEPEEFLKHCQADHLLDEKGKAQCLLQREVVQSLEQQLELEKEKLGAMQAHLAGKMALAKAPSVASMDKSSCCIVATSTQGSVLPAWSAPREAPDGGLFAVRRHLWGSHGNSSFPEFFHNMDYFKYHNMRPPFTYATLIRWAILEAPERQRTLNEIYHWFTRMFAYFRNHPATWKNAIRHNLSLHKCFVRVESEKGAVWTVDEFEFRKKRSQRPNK
# Assay: PD-seq (MBP pull-down with sequencing)
# Conditions: 20 mM Tris-HCl pH 7.5, 100 mM NaCl, 1.5 mM MgCl2, 0.4 uM protein, 0.1 uM dsDNA library, 30 min, room temperature, amylose pull-down; high values mean tight binding; double strand, one strand shown
row,Sequence,binding signal (RPM ratio (pull-down/input))
1,GATGATTGTTCTCCCAGCTGATGAATTCCCGGCGTCGAGTAAACAAATTTTCCTAATCTTTCTGTTCAAGCGCCATCTAC,0.34
2,GATGATTGTTCTCCCAGCTGATGAATTGCCCTTCTCGAGTAAACAAATTTTCCTAATCTTTCTGTTCAAGCGCCATCTAC,0.466
3,GATGATTGTTCTCCCAGCTGATGAATTGACTCGGTCGAGTAAACAAATTTTCCTAATCTTTCTGTTCAAGCGCCATCTAC,0.231
4,GATGATTGTTCTCCCAGCTGATGAATTGCATATCTCGAGTAAACAAATTTTCCTAATCTTTCTGTTCAAGCGCCATCTAC,1.4
5,GATGATTGTTCTCCCAGCTGATGAATTTCATTTTTCGAGTAAACAAATTTTCCTAATCTTTCTGTTCAAGCGCCATCTAC,0.783
6,GATGATTGTTCTCCCAGCTGATGAATTAGCTCCCTCGAGTAAACAAATTTTCCTAATCTTTCTGTTCAAGCGCCATCTAC,0.291
7,GATGATTGTTCTCCCAGCTGATGAATTGAGCTGGTCGAGTAAACAAATTTTCCTAATCTTTCTGTTCAAGCGCCATCTAC,0.419
8,GATGATTGTTCTCCCAGCTGATGAATTCAAAAGCTCGAGTAAACAAATTTTCCTAATCTTTCTGTTCAAGCGCCATCTAC,0.216
9,GATGATTGTTCTCCCAGCTGATGAATTGTTACTGTCGAGTAAACAAATTTTCCTAATCTTTCTGTTCAAGCGCCATCTAC,0.78
10,GATGATTGTTCTCCCAGCTGATGAATTATTAGTATCGAGTAAACAAATTTTCCTAATCTTTCTGTTCAAGCGCCATCTAC,1.6
11,GATGATTGTTCTCCCAGCTGATGAATTTGCGCCTTCGAGTAAACAAATTTTCCTAATCTTTCTGTTCAAGCGCCATCTAC,3.88
12,GATGATTGTTCTCCCAGCTGATGAATTCGCCTCATCGAGTAAACAAATTTTCCTAATCTTTCTGTTCAAGCGCCATCTAC,1.28
13,GATGATTGTTCTCCCAGCTGATGAATTCAACCCATCGAGTAAACAAATTTTCCTAATCTTTCTGTTCAAGCGCCATCTAC,0.37
14,GATGATTGTTCTCCCAGCTGATGAATTTTCATACTCGAGTAAACAAATTTTCCTAATCTTTCTGTTCAAGCGCCATCTAC,0.354
15,GATGATTGTTCTCCCAGCTGATGAATTTCTCTTGTCGAGTAAACAAATTTTCCTAATCTTTCTGTTCAAGCGCCATCTAC,0.265
16,GATGATTGTTCTCCCAGCTGATGAATTACGCATATCGAGTAAACAAATTTTCCTAATCTTTCTGTTCAAGCGCCATCTAC,3.11
17,GATGATTGTTCTCCCAGCTGATGAATTGCTGATCTCGAGTAAACAAATTTTCCTAATCTTTCTGTTCAAGCGCCATCTAC,0.759
18,GATGATTGTTCTCCCAGCTGATGAATTGCCTGTTTCGAGTAAACAAATTTTCCTAATCTTTCTGTTCAAGCGCCATCTAC,0.914
19,GATGATTGTTCTCCCAGCTGATGAATTTATTCCCTCGAGTAAACAAATTTTCCTAATCTTTCTGTTCAAGCGCCATCTAC,0.81
20,GATGATTGTTCTCCCAGCTGATGAATTCACAGGCTCGAGTAAACAAATTTTCCTAATCTTTCTGTTCAAGCGCCATCTAC,0.255
21,GATGATTGTTCTCCCAGCTGATGAATTCGGGTTGTCGAGTAAACAAATTTTCCTAATCTTTCTGTTCAAGCGCCATCTAC,0.775

row,Sequence,binding signal (RPM ratio (pull-down/input))
1,GATGATTGTTCTCCCAGCTGATGAATTCAGAAAGTCGAGTAAACAAATTTTCCTAATCTTTCTGTTCAAGCGCCATCTAC,0.188
2,GATGATTGTTCTCCCAGCTGATGAATTTAGCATGTCGAGTAAACAAATTTTCCTAATCTTTCTGTTCAAGCGCCATCTAC,5.25
3,GATGATTGTTCTCCCAGCTGATGAATTCTAGGTATCGAGTAAACAAATTTTCCTAATCTTTCTGTTCAAGCGCCATCTAC,0.464
4,GATGATTGTTCTCCCAGCTGATGAATTTCTATAATCGAGTAAACAAATTTTCCTAATCTTTCTGTTCAAGCGCCATCTAC,0.307
5,GATGATTGTTCTCCCAGCTGATGAATTAATCATCTCGAGTAAACAAATTTTCCTAATCTTTCTGTTCAAGCGCCATCTAC,1.02
6,GATGATTGTTCTCCCAGCTGATGAATTCAGAAGTTCGAGTAAACAAATTTTCCTAATCTTTCTGTTCAAGCGCCATCTAC,0.234
7,GATGATTGTTCTCCCAGCTGATGAATTCTACATATCGAGTAAACAAATTTTCCTAATCTTTCTGTTCAAGCGCCATCTAC,0.452
8,GATGATTGTTCTCCCAGCTGATGAATTGGGTTGATCGAGTAAACAAATTTTCCTAATCTTTCTGTTCAAGCGCCATCTAC,1.06
9,GATGATTGTTCTCCCAGCTGATGAATTATACTGATCGAGTAAACAAATTTTCCTAATCTTTCTGTTCAAGCGCCATCTAC,0.461
10,GATGATTGTTCTCCCAGCTGATGAATTAGGTGCCTCGAGTAAACAAATTTTCCTAATCTTTCTGTTCAAGCGCCATCTAC,0.963
11,GATGATTGTTCTCCCAGCTGATGAATTGAACCCATCGAGTAAACAAATTTTCCTAATCTTTCTGTTCAAGCGCCATCTAC,0.31
12,GATGATTGTTCTCCCAGCTGATGAATTCGTTCGATCGAGTAAACAAATTTTCCTAATCTTTCTGTTCAAGCGCCATCTAC,0.278
13,GATGATTGTTCTCCCAGCTGATGAATTCGACGAGTCGAGTAAACAAATTTTCCTAATCTTTCTGTTCAAGCGCCATCTAC,0.246
14,GATGATTGTTCTCCCAGCTGATGAATTACCTGTCTCGAGTAAACAAATTTTCCTAATCTTTCTGTTCAAGCGCCATCTAC,0.375
15,GATGATTGTTCTCCCAGCTGATGAATTTGCATGTTCGAGTAAACAAATTTTCCTAATCTTTCTGTTCAAGCGCCATCTAC,3.83
16,GATGATTGTTCTCCCAGCTGATGAATTCAGGAGCTCGAGTAAACAAATTTTCCTAATCTTTCTGTTCAAGCGCCATCTAC,0.191
17,GATGATTGTTCTCCCAGCTGATGAATTTTGGGTATCGAGTAAACAAATTTTCCTAATCTTTCTGTTCAAGCGCCATCTAC,0.819
18,GATGATTGTTCTCCCAGCTGATGAATTCTCTTTCTCGAGTAAACAAATTTTCCTAATCTTTCTGTTCAAGCGCCATCTAC,0.337
19,GATGATTGTTCTCCCAGCTGATGAATTGTCGCTTTCGAGTAAACAAATTTTCCTAATCTTTCTGTTCAAGCGCCATCTAC,1.28
20,GATGATTGTTCTCCCAGCTGATGAATTATTGATCTCGAGTAAACAAATTTTCCTAATCTTTCTGTTCAAGCGCCATCTAC,1.15
21,GATGATTGTTCTCCCAGCTGATGAATTACCTAGCTCGAGTAAACAAATTTTCCTAATCTTTCTGTTCAAGCGCCATCTAC,0.311

row,Sequence,binding signal (RPM ratio (pull-down/input))
1,GATGATTGTTCTCCCAGCTGATGAATTCGGTACCTCGAGTAAACAAATTTTCCTAATCTTTCTGTTCAAGCGCCATCTAC,0.686
2,GATGATTGTTCTCCCAGCTGATGAATTCTCTTCTTCGAGTAAACAAATTTTCCTAATCTTTCTGTTCAAGCGCCATCTAC,0.255
3,GATGATTGTTCTCCCAGCTGATGAATTGCCGGTGTCGAGTAAACAAATTTTCCTAATCTTTCTGTTCAAGCGCCATCTAC,0.627
4,GATGATTGTTCTCCCAGCTGATGAATTCCAAAACTCGAGTAAACAAATTTTCCTAATCTTTCTGTTCAAGCGCCATCTAC,0.233
5,GATGATTGTTCTCCCAGCTGATGAATTTATTGGGTCGAGTAAACAAATTTTCCTAATCTTTCTGTTCAAGCGCCATCTAC,5.2
6,GATGATTGTTCTCCCAGCTGATGAATTACCCTTATCGAGTAAACAAATTTTCCTAATCTTTCTGTTCAAGCGCCATCTAC,0.445
7,GATGATTGTTCTCCCAGCTGATGAATTGGGGCTGTCGAGTAAACAAATTTTCCTAATCTTTCTGTTCAAGCGCCATCTAC,0.377
8,GATGATTGTTCTCCCAGCTGATGAATTGAGATGTTCGAGTAAACAAATTTTCCTAATCTTTCTGTTCAAGCGCCATCTAC,0.976
9,GATGATTGTTCTCCCAGCTGATGAATTCCACGCGTCGAGTAAACAAATTTTCCTAATCTTTCTGTTCAAGCGCCATCTAC,0.72
10,GATGATTGTTCTCCCAGCTGATGAATTCGGATCCTCGAGTAAACAAATTTTCCTAATCTTTCTGTTCAAGCGCCATCTAC,0.382
11,GATGATTGTTCTCCCAGCTGATGAATTTGTTTGCTCGAGTAAACAAATTTTCCTAATCTTTCTGTTCAAGCGCCATCTAC,7.54
12,GATGATTGTTCTCCCAGCTGATGAATTTAGCGCCTCGAGTAAACAAATTTTCCTAATCTTTCTGTTCAAGCGCCATCTAC,1.56
13,GATGATTGTTCTCCCAGCTGATGAATTGGTTTCGTCGAGTAAACAAATTTTCCTAATCTTTCTGTTCAAGCGCCATCTAC,1.28
14,GATGATTGTTCTCCCAGCTGATGAATTGAAGGTATCGAGTAAACAAATTTTCCTAATCTTTCTGTTCAAGCGCCATCTAC,0.482
15,GATGATTGTTCTCCCAGCTGATGAATTTAGGCTATCGAGTAAACAAATTTTCCTAATCTTTCTGTTCAAGCGCCATCTAC,0.879
16,GATGATTGTTCTCCCAGCTGATGAATTGTACTCGTCGAGTAAACAAATTTTCCTAATCTTTCTGTTCAAGCGCCATCTAC,0.475
17,GATGATTGTTCTCCCAGCTGATGAATTTGATATATCGAGTAAACAAATTTTCCTAATCTTTCTGTTCAAGCGCCATCTAC,1.49
18,GATGATTGTTCTCCCAGCTGATGAATTGACGATGTCGAGTAAACAAATTTTCCTAATCTTTCTGTTCAAGCGCCATCTAC,0.459
19,GATGATTGTTCTCCCAGCTGATGAATTTCTGGATTCGAGTAAACAAATTTTCCTAATCTTTCTGTTCAAGCGCCATCTAC,0.223
20,GATGATTGTTCTCCCAGCTGATGAATTCTCCCCCTCGAGTAAACAAATTTTCCTAATCTTTCTGTTCAAGCGCCATCTAC,0.194
21,GATGATTGTTCTCCCAGCTGATGAATTAAGGGCTTCGAGTAAACAAATTTTCCTAATCTTTCTGTTCAAGCGCCATCTAC,0.345
